A compilation of properties of binary mixtures (doi:10.1021/acs.jced.9b00875)
The densities may have been worked out from excess volumes.

Experiment: xn = mol fraction of the nth substance listed
Settings: 101 kPa

CCCC[n+]1ccn(C)c1.F[B-](F)(F)F + CNC(C)=O
x1 = 1
Settings | mass density [kg/m3]
298.15 K | 1202.6
303.15 K | 1199.3
308.15 K | 1195.9
313.15 K | 1192.2
318.15 K | 1188.3

CNC(C)=O + CCCC[n+]1ccn(C)c1.F[B-](F)(F)F
mass density [kg/m3]
Settings | 293.15 K | 298.15 K | 303.15 K | 308.15 K | 313.15 K | 318.15 K
x2 = 0 | 958.1 | 954.7 | 951.3 | – | 944.1 | 940.4
x2 = 0.0711 | – | – | 991.3 | 987.9 | 984.4 | –
x2 = 0.1409 | – | 1027.1 | – | 1020.7 | 1017.3 | –
x2 = 0.2042 | 1055.4 | – | 1049.3 | 1046 | 1042.7 | 1039.3
x2 = 0.27 | 1078.1 | 1075.1 | 1072.1 | 1068.9 | 1065.6 | 1062.1
x2 = 0.3564 | 1103.6 | 1100.6 | 1097.6 | 1094.5 | 1091.2 | 1087.7
x2 = 0.4343 | – | 1120.2 | 1117.2 | 1114.1 | 1110.8 | 1107.4
x2 = 0.4992 | 1137.3 | – | 1131.5 | 1128.3 | – | 1121.7
x2 = 0.5552 | 1148.3 | 1145.5 | 1142.5 | 1139.4 | 1136.1 | 1132.8
x2 = 0.6389 | 1162.9 | 1160 | 1157.1 | 1154 | 1150.8 | 1147.4
x2 = 0.714 | 1174.2 | 1171.4 | 1168.5 | – | 1162.1 | 1158.8
x2 = 0.7774 | – | – | 1176.9 | 1173.8 | 1170.5 | 1167.1
x2 = 0.8495 | 1191.2 | 1188.4 | 1185.4 | 1182.2 | 1178.9 | 1175.4
x2 = 0.9302 | 1199.5 | 1196.6 | 1193.5 | 1190.2 | 1186.7 | 1183.1
